# Data as given in publication PMC9911399, “Two distinct binding modes provide the RNA-binding protein RbFox with extraordinary sequence specificity”.
# Substitutions are numbered along the chain they refer to; changes in the protein carry UniProt numbers. Some of the results follow.
# T1: RBFOX1 RRM RbFoxmut (Fox-RRM*) (Homo sapiens, UniProt Q9NWB1 109-208, R118D;E147R;N151S;E152T)
# T1 sequence: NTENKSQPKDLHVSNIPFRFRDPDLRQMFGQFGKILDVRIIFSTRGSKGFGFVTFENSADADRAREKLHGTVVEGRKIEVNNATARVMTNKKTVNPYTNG
# B1: GGCUUAG (DNA:RNA)
# RNA: GGGAGACCGGAAUUCAGAUUGUCCGGCUUAGUUAAAUCCCGUCGUAGCCACCA
# DNA 1: CAATCTGAATTCCGGTCTCCC
# DNA 2: TGGTGGCTACGACGGGATT
# B2: GUUCAUA (DNA:RNA)
# RNA: B1 RNA with G26U, C27U, U28C, U29A, A30U, G31A
# DNA 1: CAATCTGAATTCCGGTCTCCC
# DNA 2: TGGTGGCTACGACGGGATT
# B3: GGAAUCC (DNA:RNA)
# RNA: B1 RNA with C27A, U28A, A30C, G31C
# DNA 1: CAATCTGAATTCCGGTCTCCC
# DNA 2: TGGTGGCTACGACGGGATT
# B4: AGCUUAA (DNA:RNA)
# RNA: B1 RNA with G25A, G31A
# DNA 1: CAATCTGAATTCCGGTCTCCC
# DNA 2: TGGTGGCTACGACGGGATT
# B5: GUUAAGU (DNA:RNA)
# RNA: B1 RNA with G26U, C27U, U28A, U29A, A30G, G31U
# DNA 1: CAATCTGAATTCCGGTCTCCC
# DNA 2: TGGTGGCTACGACGGGATT
# B6: CUGUGAC (DNA:RNA)
# RNA: B1 RNA with G25C, G26U, C27G, U29G, G31C
# DNA 1: CAATCTGAATTCCGGTCTCCC
# DNA 2: TGGTGGCTACGACGGGATT
# B7: AAACCGA (DNA:RNA)
# RNA: GGGAGACCGGAAUUCAGAUUGUCCAAACCGAUUAAAUCCCGUCGUAGCCACCA
# DNA 1: CAATCTGAATTCCGGTCTCCC
# DNA 2: TGGTGGCTACGACGGGATT
# B8: AUCCGGG (DNA:RNA)
# RNA: B7 RNA with A26U, A27C, C29G, A31G
# DNA 1: CAATCTGAATTCCGGTCTCCC
# DNA 2: TGGTGGCTACGACGGGATT
# B9: CCAGAAG (DNA:RNA)
# RNA: B1 RNA with G25C, G26C, C27A, U28G, U29A
# DNA 1: CAATCTGAATTCCGGTCTCCC
# DNA 2: TGGTGGCTACGACGGGATT
# B10: CUAAGCC (DNA:RNA)
# RNA: B7 RNA with A25C, A26U, C28A, C29G, G30C, A31C
# DNA 1: CAATCTGAATTCCGGTCTCCC
# DNA 2: TGGTGGCTACGACGGGATT
# B11: UGGGUAA (DNA:RNA)
# RNA: B1 RNA with G25U, C27G, U28G, G31A
# DNA 1: CAATCTGAATTCCGGTCTCCC
# DNA 2: TGGTGGCTACGACGGGATT
# B12: UGACCCC (DNA:RNA)
# RNA: B7 RNA with A25U, A26G, G30C, A31C
# DNA 1: CAATCTGAATTCCGGTCTCCC
# DNA 2: TGGTGGCTACGACGGGATT
# B13: UAGGGUG (DNA:RNA)
# RNA: B7 RNA with A25U, A27G, C28G, C29G, G30U, A31G
# DNA 1: CAATCTGAATTCCGGTCTCCC
# DNA 2: TGGTGGCTACGACGGGATT
# B14: UACCCAC (DNA:RNA)
# RNA: B7 RNA with A25U, A27C, G30A, A31C
# DNA 1: CAATCTGAATTCCGGTCTCCC
# DNA 2: TGGTGGCTACGACGGGATT
# B15: CUCAAAA (DNA:RNA)
# RNA: B1 RNA with G25C, G26U, U28A, U29A, G31A
# DNA 1: CAATCTGAATTCCGGTCTCCC
# DNA 2: TGGTGGCTACGACGGGATT
# B16: CGACCGA (DNA:RNA)
# RNA: B7 RNA with A25C, A26G
# DNA 1: CAATCTGAATTCCGGTCTCCC
# DNA 2: TGGTGGCTACGACGGGATT
# B17: GCACGGU (DNA:RNA)
# RNA: B7 RNA with A25G, A26C, C29G, A31U
# DNA 1: CAATCTGAATTCCGGTCTCCC
# DNA 2: TGGTGGCTACGACGGGATT
# B18: CGGAGUG (DNA:RNA)
# RNA: B1 RNA with G25C, C27G, U28A, U29G, A30U
# DNA 1: CAATCTGAATTCCGGTCTCCC
# DNA 2: TGGTGGCTACGACGGGATT
# B19: GAUCGUG (DNA:RNA)
# RNA: B7 RNA with A25G, A27U, C29G, G30U, A31G
# DNA 1: CAATCTGAATTCCGGTCTCCC
# DNA 2: TGGTGGCTACGACGGGATT
# B20: GGAUCAC (DNA:RNA)
# RNA: B1 RNA with C27A, U29C, G31C
# DNA 1: CAATCTGAATTCCGGTCTCCC
# DNA 2: TGGTGGCTACGACGGGATT
# Molecular target: T1, RBFOX1 RRM RbFoxmut (Fox-RRM*)
# Assay: EMSA; HiTS-Eq, 1 nM pool, 10 min; buffer printed only for the single-RNA assays: 10 mM Tris pH 7.5, 150 mM NaCl, 3.4 mM EDTA, 0.001% NP-40, 30 C
# Conditions: tags: His6 N-terminal (pET28a); label: 5' 32P
# Procedure, shortened: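 A pool of RNA with 7 randomized nucleotides, 5′-radiolabelled and with DNA-annealed flanks, was equilibrated at 1 nM for 10 min in 50 µL with purified RbFox RRM, wild type or mutant, across increasing protein concentrations. Free RNA was separated by 8% native PAGE, excised, reverse-transcribed, barcoded by PCR and sequenced. Relative association constants were obtained from read-count changes of each RNA species versus the control reaction and normalised to the cognate motif.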
row,Binder,binding signal
1,B1,0.0838 KA relative to UGCAUGU
2,B2,0.116 KA relative to UGCAUGU
3,B3,0.184 KA relative to UGCAUGU
4,B4,0.11 KA relative to UGCAUGU
5,B5,0.128 KA relative to UGCAUGU
6,B6,0.0946 KA relative to UGCAUGU
7,B7,0.0755 KA relative to UGCAUGU
8,B8,0.0531 KA relative to UGCAUGU
9,B9,0.116 KA relative to UGCAUGU
10,B10,0.12 KA relative to UGCAUGU
11,B11,0.124 KA relative to UGCAUGU
12,B12,0.0384 KA relative to UGCAUGU
13,B13,0.149 KA relative to UGCAUGU
14,B14,0.102 KA relative to UGCAUGU
15,B15,0.0819 KA relative to UGCAUGU
16,B16,0.0812 KA relative to UGCAUGU
17,B17,0.289 KA relative to UGCAUGU
18,B18,0.198 KA relative to UGCAUGU
19,B19,0.181 KA relative to UGCAUGU
20,B20,0.0978 KA relative to UGCAUGU
